MIC of clinical C. albicans isolates, CLSI broth microdilution (ranges and time not stated); higher = less susceptible. Call: susceptible or wild type [S] / resistant or non-wild type [R] by CLSI breakpoints or epidemiological cut-offs; intermediate and dose-dependent carry no call here (the paper groups them with resistant). '<=' and '>=' mark each drug's lowest and highest value, inferred; the source prints them plain. Isolates are numbered anew.
What was measured:
Experiment in all cases: CLSI broth microdilution.
itraconazole = compound: CCC(C)n1ncn(-c2ccc(N3CCN(c4ccc(OCC5COC(Cn6cncn6)(c6ccc(Cl)cc6Cl)O5)cc4)CC3)cc2)c1=O [itraconazole]
micafungin = compound: CCCCCOc1ccc(-c2cc(-c3ccc(C(=O)N[C@H]4C[C@@H](O)[C@@H](O)NC(=O)[C@@H]5[C@@H](O)[C@@H](C)CN5C(=O)[C@H]([C@H](O)CC(N)=O)NC(=O)[C@H]([C@H](O)[C@@H](O)c5ccc(O)c(OS(=O)(=O)O)c5)NC(=O)[C@@H]5C[C@@H](O)CN5C(=O)[C@H]([C@@H](C)O)NC4=O)cc3)no2)cc1 [micafungin]
anidulafungin = compound: CCCCCOc1ccc(-c2ccc(-c3ccc(C(=O)N[C@H]4C[C@@H](O)[C@@H](O)NC(=O)[C@@H]5[C@@H](O)[C@@H](C)CN5C(=O)[C@H]([C@@H](C)O)NC(=O)[C@H]([C@H](O)[C@@H](O)c5ccc(O)cc5)NC(=O)[C@@H]5C[C@@H](O)CN5C(=O)[C@H]([C@@H](C)O)NC4=O)cc3)cc2)cc1 [anidulafungin]
posaconazole = compound: CC[C@@H]([C@H](C)O)n1ncn(-c2ccc(N3CCN(c4ccc(OC[C@@H]5CO[C@@](Cn6cncn6)(c6ccc(F)cc6F)C5)cc4)CC3)cc2)c1=O [posaconazole]
caspofungin = compound: CC[C@H](C)C[C@H](C)CCCCCCCCC(=O)N[C@H]1C[C@@H](O)[C@@H](NCCN)NC(=O)[C@@H]2[C@@H](O)CCN2C(=O)[C@H]([C@H](O)CCN)NC(=O)[C@H]([C@H](O)[C@@H](O)c2ccc(O)cc2)NC(=O)[C@@H]2C[C@@H](O)CN2C(=O)[C@H]([C@@H](C)O)NC1=O [caspofungin]
voriconazole = compound: C[C@@H](c1ncncc1F)[C@](O)(Cn1cncn1)c1ccc(F)cc1F [voriconazole]
amphotericin B = compound: C[C@@H]1[C@H](O)[C@@H](C)/C=C/C=C/C=C/C=C/C=C/C=C/C=C/[C@H](O[C@@H]2O[C@H](C)[C@@H](O)[C@H](N)[C@@H]2O)C[C@@H]2O[C@](O)(C[C@@H](O)C[C@@H](O)[C@H](O)CC[C@@H](O)C[C@@H](O)CC(=O)O[C@H]1C)C[C@H](O)[C@H]2C(=O)O [amphotericin B]
flucytosine = compound: Nc1[nH]c(=O)ncc1F [flucytosine]
fluconazole = compound: OC(Cn1cncn1)(Cn1cncn1)c1ccc(F)cc1F [fluconazole]

Row | Test System | MIC (itraconazole) | MIC (micafungin) | MIC (anidulafungin) | MIC (posaconazole) | MIC (caspofungin) | MIC (voriconazole) | MIC (amphotericin B) | MIC (flucytosine) | MIC (fluconazole)
1 | Candida albicans isolate 30 (Erg11p: K342R,H283L,E266D, Fur1p: WT, Tac1p: I558V,A377V,F189S,N174D,M170I,K87N) | 0.03 mg/L [S] | ≤ 0.008 mg/L [S] | 0.06 mg/L [S] | 0.03 mg/L [S] | 0.12 mg/L [S] | ≤ 0.008 mg/L [S] | 0.5 mg/L [S] | ≤ 0.06 mg/L [S] | 0.5 mg/L [S]
2 | Candida albicans isolate 259 (Erg11p: Y257H,A114S, Fur1p: R101C, Tac1p: A736V) | 0.5 mg/L [R] | 0.015 mg/L [S] | ≤ 0.015 mg/L [S] | 1 mg/L [R] | 0.03 mg/L [S] | 1 mg/L [R] | 0.5 mg/L [S] | 0.12 mg/L [S] | 32 mg/L [R]
3 | Candida albicans isolate 61 (Erg11p: E266D, Fur1p: WT, Tac1p: I558V,A377V,F189S,N174D,M170I,K87N) | 0.03 mg/L [S] | ≤ 0.008 mg/L [S] | 0.03 mg/L [S] | 0.03 mg/L [S] | 0.03 mg/L [S] | ≤ 0.008 mg/L [S] | 0.5 mg/L [S] | ≤ 0.06 mg/L [S] | 0.5 mg/L [S]
4 | Candida albicans isolate 112 (Erg11p: V488I,E266D, Fur1p: WT, Tac1p: N896S,I895T) | 0.03 mg/L [S] | 0.015 mg/L [S] | 0.06 mg/L [S] | 0.03 mg/L [S] | 0.03 mg/L [S] | ≤ 0.008 mg/L [S] | 0.5 mg/L [S] | ≤ 0.06 mg/L [S] | 0.5 mg/L [S]
5 | Candida albicans isolate 279 (Erg11p: V437I,E266D, Fur1p: WT, Tac1p: F189S,N174D,M170I,A90T,K87N) | 0.06 mg/L [S] | 0.03 mg/L [S] | 0.12 mg/L [S] | 0.03 mg/L [S] | 0.12 mg/L [S] | ≤ 0.008 mg/L [S] | 0.5 mg/L [S] | ≤ 0.06 mg/L [S] | 0.25 mg/L [S]
6 | Candida albicans isolate 299 (Erg11p: WT, Fur1p: WT, Tac1p: A377V,F189S,N174D,M170I,K87N) | 0.03 mg/L [S] | 0.015 mg/L [S] | 0.12 mg/L [S] | 0.015 mg/L [S] | 0.06 mg/L [S] | ≤ 0.008 mg/L [S] | 0.5 mg/L [S] | ≤ 0.06 mg/L [S] | 0.25 mg/L [S]
7 | Candida albicans isolate 5 (Erg11p: E266D, Fur1p: WT, Tac1p: C908Y,A377V,N174D,M170I,I109N,K87N) | 0.03 mg/L [S] | ≤ 0.008 mg/L [S] | ≤ 0.015 mg/L [S] | 0.03 mg/L [S] | 0.03 mg/L [S] | ≤ 0.008 mg/L [S] | 0.5 mg/L [S] | ≤ 0.06 mg/L [S] | 0.5 mg/L [S]
8 | Candida albicans isolate 294 (Erg11p: WT, Fur1p: WT, Tac1p: I558V,A377V,F189S,N174D,M170I,K87N) | ≤ 0.015 mg/L [S] | 0.015 mg/L [S] | 0.03 mg/L [S] | 0.015 mg/L [S] | 0.03 mg/L [S] | ≤ 0.008 mg/L [S] | 0.5 mg/L [S] | ≤ 0.06 mg/L [S] | 0.25 mg/L [S]
9 | Candida albicans isolate 236 (Erg11p: E266D, Fur1p: WT, Tac1p: T885K,I558V,A430V,A377V,M170V) | ≤ 0.015 mg/L [S] | ≤ 0.008 mg/L [S] | ≤ 0.015 mg/L [S] | ≤ 0.008 mg/L [S] | 0.015 mg/L [S] | ≤ 0.008 mg/L [S] | 0.25 mg/L [S] | ≤ 0.06 mg/L [S] | 0.25 mg/L [S]
10 | Candida albicans isolate 222 (Erg11p: E266D, Fur1p: WT, Tac1p: I558V,A377V,F189S,N174D,M170I,K87N) | 0.06 mg/L [S] | 0.015 mg/L [S] | 0.06 mg/L [S] | 0.03 mg/L [S] | 0.06 mg/L [S] | ≤ 0.008 mg/L [S] | 0.25 mg/L [S] | ≤ 0.06 mg/L [S] | 0.25 mg/L [S]
11 | Candida albicans isolate 166 (Erg11p: Y132H,T123I, Fur1p: R101C, Tac1p: WT) | 0.5 mg/L [R] | 0.03 mg/L [S] | 0.12 mg/L [S] | 1 mg/L [R] | 0.03 mg/L [S] | ≥ 8 mg/L [R] | 1 mg/L [S] | ≤ 0.06 mg/L [S] | ≥ 256 mg/L [R]
12 | Candida albicans isolate 133 (Erg11p: Y132H,T123I, Fur1p: R101C, Tac1p: WT) | 0.12 mg/L [S] | 0.015 mg/L [S] | ≤ 0.015 mg/L [S] | 0.06 mg/L [S] | 0.015 mg/L [S] | 0.5 µg/mL | 0.5 mg/L [S] | 0.12 mg/L [S] | 4 µg/mL
13 | Candida albicans isolate 122 (Erg11p: WT, Fur1p: R101C, Tac1p: WT) | 0.06 mg/L [S] | ≤ 0.008 mg/L [S] | 0.03 mg/L [S] | 0.015 mg/L [S] | 0.015 mg/L [S] | ≤ 0.008 mg/L [S] | 0.5 mg/L [S] | 0.5 mg/L [S] | 0.5 mg/L [S]
14 | Candida albicans isolate 254 (Erg11p: WT, Fur1p: WT, Tac1p: WT) | 0.03 mg/L [S] | 0.015 mg/L [S] | ≤ 0.015 mg/L [S] | 0.015 mg/L [S] | 0.015 mg/L [S] | ≤ 0.008 mg/L [S] | 0.5 mg/L [S] | ≤ 0.06 mg/L [S] | 0.5 mg/L [S]
15 | Candida albicans isolate 207 (Erg11p: V488I,E266D, Fur1p: WT, Tac1p: I558V,A377V,F189S,N174D,M170I,K87N) | ≤ 0.015 mg/L [S] | ≤ 0.008 mg/L [S] | 0.03 mg/L [S] | 0.015 mg/L [S] | 0.03 mg/L [S] | ≤ 0.008 mg/L [S] | 0.5 mg/L [S] | ≤ 0.06 mg/L [S] | 0.25 mg/L [S]
16 | Candida albicans isolate 52 (Erg11p: V488I,E266D, Fur1p: WT, Tac1p: N896S,I895T) | 0.06 mg/L [S] | 0.015 mg/L [S] | ≤ 0.015 mg/L [S] | 0.015 mg/L [S] | 0.015 mg/L [S] | ≤ 0.008 mg/L [S] | 0.5 mg/L [S] | ≤ 0.06 mg/L [S] | 0.5 mg/L [S]
